This is one part of the list.
System: PfHDP1 homeodomain (GST-tagged)
Assay: gcPBM binding intensity (ln(normalized median fluorescence intensity)); higher = stronger DNA binding
Summary of the method: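 Using an Agilent 4 × 180k array, primer-extended double-stranded 36-bp intergenic genomic probes and negative controls were exposed for 1 h to GST-fused P. falciparum DNA-binding domains expressed in E. coli. Binding was carried out in 1× PBS with 1% milk, 0.2 mg/ml BSA, 0.5% salmon testes DNA and 0.03% Triton X-100, and protein was detected with Alexa488 anti-GST antibody and a 488 nm scan. Binding intensity is the highest Masliner-normalised natural-log median intensity across replicate spots of either probe orientation.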

Row | Sequence | gcPBM binding intensity (ln)
1 | AGTGTATTTTTATGTTGTACATGTAATATTTTTGAT [XGTACX_site541] | 6.8
2 | CTTTTTTTTTAAATATCACACACATATAATATATTC [CACACA_site9222] | 6.64
3 | TACAGATATTCATATAAACACACATACAAATTATGT [CACACA_site7929] | 6.3
4 | TAATTCATCATATGCACACACAATACCAAAATGTGC [CACACA_site191] | 10.3
5 | TATATAATATATTAATGTACGTTATATGTATTCCTT [XGTACX_site6140] | 6.39
6 | AAACAAAACAAAACATGTACACATTATATATATATA [XGTACX_site3374] | 9.04
7 | TTATTTATTTATTGTTGTACACAAAATGATTCTTAA [XGTACX_site6480] | 6.84
8 | ATTAATTATATATATACACACACATACACCCAAATA [CACACA_site9126] | 7.51
9 | TAAATACTTCGTAAAACACACAAGTAGAAAAAAAAA [CACACA_site360] | 6.46
10 | AAAAATATAATATATGCACACATACATACATATATA [CACACA_site7915] | 9.65
11 | ATAATTAGTTCAATTTTTTTTTTTTTTTTTTTTTTT [CACACA_negctrl_site1371] | 6.91
12 | TATACATCATTTTTCAACAACAAAAAAAAAAAAAAT [CACACA_negctrl_site1185] | 6.24
13 | ATATATATAAATACAACACACATGTAATATATAAAT [CACACA_site5766] | 6.79
14 | ACGTAAAATAGGGACGCATGCACAAATATTTTTAAA [TGCATGCA_site336] | 7.93
15 | TATATAAATATATACACACATACATACATACATATA [CACACA_site3835] | 6.78
16 | TTCTAATAAATGTGTTGTACACCTTTAGCAACTATT [XGTACX_site3235] | 6.4
17 | CTATATATATATTTCAGTACATATTAAGAATATATA [XGTACX_site4860] | 6.34
18 | TAATAATTACAAAGAAGTACATAAAAAAAAATTTAT [XGTACX_site4684] | 6.31
19 | AGGAAAAAAGAAAAAACACACATAAATATTTATATA [CACACA_site7446] | 6.32
20 | TATATATATTTATGCACACAAAATATATTATATAAT [CACACA_site5955] | 10.4
21 | TCTTTCTTATTTTAATGATATTTATTCATTCCAGTT [CACACA_negctrl_site1679] | 6.52
22 | ATATAAATAAATATATGTACACACACAAATATATAC [XGTACX_site3950] | 6.55

Row | Sequence | gcPBM binding intensity (ln)
23 | AAAAAACACGCGCACACACACACACGCGCCCACATA [CACACA_site7106] | 7.52
24 | ATAAAAAAAAATATTTGTACACATATTTATATATTA [XGTACX_site8147] | 6.56
25 | AATACTAAAACCCATACACACACATATATATAGTAC [CACACA_site9041] | 7.05
26 | ACTTTTACACTTTGATTGCACTACTAAACCAGTTCA | 9.37
27 | AGAATTATTCTAAAAACACACAATACAAAAGTGCAT [CACACA_site3004] | 6.91
28 | TGAACAATATATAATAGTACATATTTATTTTTTTCT [XGTACX_site4256] | 6.01
29 | TCTTTCAATATTAATGCATGTTAATAATAAATTTTA [TGCATGCA_site448] | 6.4
30 | ATATGTTTTTTTTTTTTTTTTTAATTTGTCATAAAT [CACACA_negctrl_site1208] | 6.15
31 | TAAAGATGAAATATCACACATATATAAATATATAAA [CACACA_site4580] | 6.13
32 | TAAAAATTAAAACTGGGTACAAATTTATAGATAGCC [XGTACX_site8075] | 6.57
33 | AATTTATTAGATAGATGTACATTTTAATAAAAGTAG [XGTACX_site6819] | 6.38
34 | CATTAACAAATAAATGCACACATATATATAAATAAT [CACACA_site7892] | 9.2
35 | TCCCCTTAATTTAAAACACACAAACAAATAAGTTAG [CACACA_site5973] | 6.48
36 | ATAAATTTTTTATGAACACACAAATACACCCACTCA [CACACA_site5465] | 7.07
37 | ATAACTTTCTATACATGTACACATATATGGTATTTT [XGTACX_site7535] | 6.94
38 | TGTATATATTTTAATAGTACTCATATATATATATAT [XGTACX_site7216] | 9.17
39 | CTTATAAAAAAAATTGCACACATATTATACAGGACG [CACACA_site8133] | 10
40 | TTTACATTTATGTGCACACATTCCATTTGAAAGTAA [CACACA_site1953] | 10.9
41 | AATATTTTTTTTTAAACATGCATATTTGCATTACCC [TGCATGCA_site437] | 8.67
42 | TTTTTTTTAATGAGAAGTACGGTCTTTCAATGTCTT [XGTACX_site6773] | 5.95
43 | ATTGTGTTGACGGGTGACCCTTCCAGAGAAATAGAA [CACACA_negctrl_site1362] | 6.07
44 | GTGTACAGTTTTTGCACACATATAAATAAAAAAAAG [CACACA_site3599] | 10.2

Row | Sequence | gcPBM binding intensity (ln)
45 | AAAATATTTATATTTACACACACATAATACATATAT [CACACA_site32] | 6.84
46 | ATATATACAAAGGATTAACACACATATTATTATATA [CACACA_site8563] | 6.3
47 | TTCGTTATAATTGAATTTACAATATGCTTTATAATG [XGTACX_negctrl_site238] | 6.24
48 | TAAATTACATGAAATTGTACATGAATATTAAATATA [XGTACX_site3909] | 6.5
49 | GCATATATTATATATTTATTTATTTTTTTTTTTTAA [GTGCAC_negctrl_site193] | 6.25
50 | CAATGTTAACATATTACACACATATGTATTTATAAT [CACACA_site5512] | 7
51 | ATATATATGAATACATGTACGTATTTGTCTATGTAT [XGTACX_site8306] | 6.55
52 | AATAAAGGAAATAAATAATTTATTTTGTAAAATATG [CACACA_negctrl_site97] | 6.42
53 | TCATATGTTAAATGATGTACATTTAATATAAATAAA [XGTACX_site900] | 6.2
54 | AAAAAAAACATCCTCACACATATATATATATATATA [CACACA_site5166] | 9.41
55 | TAATATCATTTATGGGGTACCTCCTATTCTTATTTA [XGTACX_site1839] | 6.18
56 | CGAACTGCACTTTTTAGTACTTAATAATTATTTTTT [XGTACX_site2446] | 7.46
57 | ATGTTACTCAGACACACACACATAAAAAAACAAAAA [CACACA_site3249] | 6.95
58 | TGTGTTAATATATGAAGTACACAATACACACTAATT [XGTACX_site5469] | 6.78
59 | AAATAAAATTATAATACATGCATACATACATATATA [TGCATGCA_site69] | 6.3
60 | TATAAATACATACGTACACACAAATATTAAAATATA [CACACA_site5129] | 6.39
61 | TATCATAAAAAATATACACACAAAGGATATTTATAT [CACACA_site6841] | 6.51
62 | TATGAACACCAACACACACACAAAAAAAAAAAAAAA [CACACA_site2013] | 6.43
63 | GAATACATAATAACATGTACACACATTCTTCTATAA [XGTACX_site8725] | 6.47
64 | TATATATATAGAAATGCATGTTAATAAAAGTTATAA [TGCATGCA_site947] | 7.31
65 | TTGTTTTCTTATTATTACTACAATACTTAAGTCAGA [TGCATGCA_negctrl_site184] | 6.53
66 | TATTTATTTATGGACACACATACAAATCTTCCAGAC [CACACA_site942] | 6.62

Row | Sequence | gcPBM binding intensity (ln)
67 | TAATCATAACTTGATACGCACACGTTATATAAATAA [CACACA_site1579] | 6.62
68 | TTTTTTTTTTTTTAAACATGCATAATAAATATAATA [TGCATGCA_site265] | 6.49
69 | TTTTTTATTTTGTGCACACACATAAAAATATATATA [CACACA_site761] | 11.4
70 | TTTTGTTGGATACAAAAATTACAAATTATTTAAAAA [TGCATGCA_negctrl_site532] | 5.77
71 | TATATATTTAATTTCACACATATATATAATTATTAT [CACACA_site4936] | 6.37
72 | TTTTTTATTTTAAAAACATGCATAAAATATAATAGT [TGCATGCA_site762] | 6.76
73 | AGATAAAAAAAGTACACACACACATATATTTATATA [CACACA_site7437] | 6.84
74 | ATACACACTTAAAAAAGTACTTAACTACATGAATTG [XGTACX_site1203] | 6.53
75 | ATATTATATATAAAATGTACATTTAAAAATATTATA [XGTACX_site889] | 6.51
76 | TTAAAATAAAGTAGTGGTACAAAAAAAAAAAAAAAA [XGTACX_site6322] | 6.35
77 | ATTAAATCGATATATACACACATGTTTGGTATATTC [CACACA_site7285] | 6.54
78 | TAACCTATAATATTCACACACATATAAATATTATAG [CACACA_site6592] | 6.64
79 | TTTTACTTAAAACACACACACACAAAAAAAAAAAAA [CACACA_site947] | 6.49
80 | AGTAATAGTTTGTGCACACTCAAGTATATCATATAT [CACACA_site4034] | 11.2
81 | TTTTTCAGAAAAGAAACACACATATTTATATTTATA [CACACA_site7167] | 6.18
82 | TAAACAAATAAATAAACACACAATATCTGTATTTAT [CACACA_site5978] | 5.94
83 | TATATGTATATATATTAACACACAAAAAAAAAAAAA [CACACA_site8534] | 6.52
84 | AACAAATATATATGTAGTACATGTTGTAGATAATTT [XGTACX_site24] | 6.68
85 | TTTTTTTTTTTAAATTCACACAATATATAAATATTG [CACACA_site5201] | 6.34
86 | AGAAAAATTATTTTGCGTACATATTTACAATAAAAA [XGTACX_site2144] | 6.42
87 | TACGTAAAATAATTGAGTACATAATTATATATATAT [XGTACX_site5361] | 8.57
88 | TTTAAAATATATAGTACACACGTGAACACAAATACA [CACACA_site4392] | 6.62

Source: the supplement of paper PMC11417369
